{"source": "ChEMBL document CHEMBL4888484", "about": "“Replenishing the malaria drug discovery pipeline: Screening and hit evaluation of the MMV Hit Generation Library 1 (HGL1) against asexual blood stage Plasmodium falciparum ,using a nano luciferase reporter read-out” (2022)", "note": "The campaign covered roughly 4,800 compounds. About 420 (8.8%) showed an effect of 50% or more. This is one part of the list."}
{"system": "Plasmodium falciparum", "assay": "Confirmatory screen in NF54 nanoGlo assay, in single point, at 2uM, 72h", "assay_type": "functional, Erythrocyte", "conditions": "timepoint 72 hour", "units": {"% Inhibition": "%"}}
{"smiles": "Cc1cc(=O)c(C(=O)Nc2cccc(Cl)c2O)c[nH]1", "% Inhibition": -10}
{"smiles": "N[C@H]1C[C@H](c2cc(NCCCc3cccnc3)nc(C3CC3)n2)C1", "% Inhibition": 75}
{"smiles": "CCn1cc(C(=O)Nc2n[nH]c3ccc(C(F)(F)F)cc23)cn1", "% Inhibition": -8}
{"smiles": "O=C1CN(C(c2ccccc2)(c2ccccc2)c2ccccc2)CO1", "% Inhibition": -7}
{"smiles": "Cc1[nH]c(=O)[nH]c(=O)c1NS(C)(=O)=O", "% Inhibition": 1}
{"smiles": "COc1ccc(-c2cc3n(n2)C[C@@](C)(C(=O)NCc2ccccc2)N(Cc2ccc4c(c2)OCO4)C3=O)cc1", "% Inhibition": 63}
{"smiles": "c1ccc(CCc2nnc3n2CCOC3)cc1", "% Inhibition": -4}
{"smiles": "CCCOc1ccc(CNC(=O)CCn2ccn3nc(-c4ccc(C)c(C)c4)cc3c2=O)cc1", "% Inhibition": 0}
{"smiles": "Clc1cccc(CNCCCNc2ccncc2)c1Cl", "% Inhibition": 71}
{"smiles": "N#CC1(O)C(C2COC3(CCCCC3)O2)OC2OC3(CCCCC3)OC21", "note": "(stereo not given)", "% Inhibition": 1}
{"smiles": "Cc1cc(O)n2nc(N(C)C(=O)C(=O)N3CCN(C)CC3)c(S(=O)(=O)c3ccccc3)c2n1", "% Inhibition": 22}
{"smiles": "CC(NC(=O)C1CCC1)C(=O)Nc1ccn(C(C)c2ccccc2)n1", "note": "(stereo not given)", "% Inhibition": -4}
{"smiles": "O=C(c1cccc(-n2cccn2)n1)N1CCCCCCC1", "% Inhibition": -12}
{"smiles": "O=C(C[C@H]1CCN(C(=O)Nc2ccc3c(c2)OCCO3)C1)NCc1ccncc1", "% Inhibition": -1}
{"smiles": "CCn1nc(-n2cnnc2)c(NC(=O)c2cc(Br)ccc2OC)c1C", "% Inhibition": -10}
{"smiles": "CCOC(=O)Oc1c(OC)cc(C(=O)Nc2ccc3c(c2)sc(=O)n3C)cc1OC", "% Inhibition": 6}
{"smiles": "Cc1noc(C)c1CC(=O)O[C@@H](C)C(=O)Nc1ccc(F)cc1", "% Inhibition": -3}
{"smiles": "Cc1ccc2cnn(CCCNC(=O)c3ccco3)c2c1", "% Inhibition": -12}
{"smiles": "CCCN1C(=O)c2ccccc2N2C(=O)CC[C@@]12C(=O)Nc1ccc(OC)cc1", "% Inhibition": 92}
{"smiles": "CCS(=O)(=O)Nc1ccc(S(=O)(=O)NC[C@@H](c2ccccc2OC)N2CCCCC2)c(C)c1", "% Inhibition": -1}
{"smiles": "O=C(Nc1ccn(Cc2cccnc2)n1)c1ccc(-c2ccccc2F)o1", "% Inhibition": -2}
{"smiles": "CC(C)(C)OC(=O)N1CCC(c2nc(-c3ccc(F)c(C(F)(F)F)c3)c[nH]2)CC1", "% Inhibition": 0}
{"smiles": "O=C(Nc1ncc(CCO)s1)[C@@H]1CCCN1C(=O)Cc1cccs1", "% Inhibition": 0}
{"smiles": "Cc1ccc(CNC(=O)c2cc3cc(OCc4ccccc4)ccc3n2Cc2ccccc2)o1", "% Inhibition": -2}
{"smiles": "C(=C\\c1cc(/C=C/c2ccccc2)n2nnnc2n1)/c1ccccc1", "% Inhibition": -3}
{"smiles": "CC(=O)Nc1ccc(NC(=O)CCC(C)C)cc1", "% Inhibition": -9}
{"smiles": "CN1CCN([C@H]2CCN(c3ccnc4ccc(Cl)cc34)C[C@H]2CCCO)CC1", "% Inhibition": 26}
{"smiles": "CCN1CCC(NC(=O)CCc2c[nH]c3ccccc23)CC1", "% Inhibition": 4}
{"smiles": "Cn1cc2c(n1)CCC[C@@H]2NC(=O)c1cccc(C(=O)NC2CC2)c1", "% Inhibition": -4}
{"smiles": "CCCN(CC(=O)N(Cc1ccccc1)Cc1ccc(C)o1)C(=O)c1ccco1", "% Inhibition": -4}
{"smiles": "CCn1c(C)cc(C(=O)O[C@@H](C)C(=O)Nc2ncccn2)c1C", "% Inhibition": -4}
{"smiles": "Cc1cc(C(=O)Nc2cncc(Br)c2O)no1", "% Inhibition": -3}
{"smiles": "COc1ccc2nc(C(F)(F)F)nc(N3CCNC(=O)CCN(C(=O)C(F)=C4CCCC4)CC3)c2c1", "% Inhibition": 5}
{"smiles": "Cc1[nH]ccc1C(=O)N1CC[C@]2(CCN(C(=O)OC(C)(C)C)C2)C1", "% Inhibition": 1}
{"smiles": "CCn1cc(Cl)c(-c2nnc(-c3cccc(C(F)(F)F)c3)o2)n1", "% Inhibition": 0}
{"smiles": "COc1ccc(CNC(=O)c2sc(Nc3ccc(C)cc3C)nc2C)c(OC)c1", "% Inhibition": -10}
{"smiles": "CCn1nc(C)cc1NS(=O)(=O)c1ccc2c(c1)C(C)(C)C(=O)N2C", "% Inhibition": -16}
{"smiles": "CCCc1cc(Nc2ccc(C(=O)NC[C@H]3CCCO3)cc2)n2nc(-c3cccnc3)nc2n1", "% Inhibition": 29}
{"smiles": "CN(C(=O)c1ccc(NC(=O)c2cnsn2)cc1Cl)C1CCCCC1", "% Inhibition": -20}
{"smiles": "COc1ccc(NC(=O)Cn2cnc3nc(N4CCCCC4)ncc3c2=O)c(OC)c1", "% Inhibition": -1}
{"smiles": "CCOc1ccccc1NC(=O)[C@H]1CCCN(c2nc3cccnc3n(Cc3ccc(C)cc3)c2=O)C1", "% Inhibition": -2}
{"smiles": "Cc1nn(-c2nc3ccccc3[nH]2)c(O)c1CCC(C)C", "% Inhibition": 68}
{"smiles": "C[C@H]1CCCN(c2nc3ncn(CC(=O)Nc4ccccc4C(F)(F)F)c(=O)c3s2)C1", "% Inhibition": -15}
{"smiles": "O=C1C[C@H](c2cccnc2)c2cnn(C3CCCC3)c2N1", "% Inhibition": 6}
{"smiles": "O=C(Nc1nncs1)c1cccc(C(=O)Nc2nncs2)n1", "% Inhibition": 68}
{"smiles": "Cc1ccc2c(c1)nc(-n1nc(C)cc1C)c1nnnn12", "% Inhibition": -8}
{"smiles": "Cc1ccc(C(=O)N2C[C@@H]3C[C@H](NC(=O)c4cccnc4)[C@H]2C3)cc1F", "% Inhibition": -5}
{"smiles": "Cc1cccc(NS(=O)(=O)c2ccc3c(c2)Cc2cc(S(=O)(=O)Nc4cccc(C)c4)ccc2-3)c1", "% Inhibition": 10}
{"smiles": "CCCNC(=O)O[C@@H]1CC[C@]2(C)C(CC[C@@H](O)[C@H]2CC(=O)N2CCC(C)CC2)[C@]1(C)CO", "note": "(stereo not given in full)", "% Inhibition": 6}
{"smiles": "CN1C(=O)[C@@H]2CCCCN2c2ccc(C(=O)NCCN3CCN(c4ccccc4F)CC3)cc21", "% Inhibition": 0}
